# Data as given in paper PMC6602471.
# The other results are listed elsewhere or left out. At the low end of the ranking, values are background and their order means little.
# Biological target: T1, ELK1 (UniProt P19419)
# T1 sequence: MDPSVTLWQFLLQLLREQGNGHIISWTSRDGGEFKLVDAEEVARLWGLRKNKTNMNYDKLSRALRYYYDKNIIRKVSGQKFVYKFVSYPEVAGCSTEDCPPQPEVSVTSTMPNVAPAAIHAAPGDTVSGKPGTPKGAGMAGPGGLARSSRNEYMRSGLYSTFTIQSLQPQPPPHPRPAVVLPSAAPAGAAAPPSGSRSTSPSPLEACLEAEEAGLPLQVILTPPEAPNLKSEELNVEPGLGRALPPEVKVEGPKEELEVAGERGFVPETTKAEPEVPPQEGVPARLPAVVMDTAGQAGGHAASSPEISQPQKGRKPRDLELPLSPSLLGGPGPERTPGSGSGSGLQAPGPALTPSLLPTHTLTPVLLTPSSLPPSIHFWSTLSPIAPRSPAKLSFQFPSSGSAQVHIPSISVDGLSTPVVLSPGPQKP
# Assay: custom PBM
# Conditions: custom protein-binding microarray; buffer, salt, pH and temperature not stated; high values mean tight binding; double strand, one strand shown
row,Sequence,binding signal (log fluorescence intensity)
1,CGGAAGTGTCGTAAACTTCGGATATCCGGTTCTTCTGTCTTGATTCGCTTGACGCTGCTG,12.3
2,CACAATTTATACAGTAATGTAGCACGCGTAACTCCTGTCTTGATTCGCTTGACGCTGCTG,8.92
3,GTGTATAGGATCCCATCCAACAGACGTGTTAAAATGGTCTTGATTCGCTTGACGCTGCTG,8.71
4,CGGAAGTGTCGTAAACGTCGGATAACCGGTTCTTCTGTCTTGATTCGCTTGACGCTGCTG,8.9
5,CTGGGACTTGACCCAACTCTGCCACGTGGATCGTTTGTCTTGATTCGCTTGACGCTGCTG,8.8
6,TCCGGCTACCGGCTCCACCCACTTCAGGCCTTGTAGGTCTTGATTCGCTTGACGCTGCTG,11.6
7,GGAAAAAGGCGCAGGGTAACACCGGAAGTGGGCTTAGTCTTGATTCGCTTGACGCTGCTG,11
8,GTGTATAGGATCCCATCCAACACACGTGGTAAAATGGTCTTGATTCGCTTGACGCTGCTG,8.97
9,CTGGGACTTGACCCAACTCTGCCACCTGGGTCGTTTGTCTTGATTCGCTTGACGCTGCTG,8.8
10,GGAAAAAGGCCCAGGGTAACACCGGAAGTGGGCTTGGTCTTGATTCGCTTGACGCTGCTG,11
11,CTGGGACTTGACCCAACTCTGCCACGTGGGTCGTTAGTCTTGATTCGCTTGACGCTGCTG,8.99
12,CAGCATAGGACTTCTTCCCTGAAGCATTTGATAACCGTCTTGATTCGCTTGACGCTGCTG,8.94
13,GATTAATTTCAGCCCTTATTCGCACGTGCCATAACAGTCTTGATTCGCTTGACGCTGCTG,8.95
14,CGGAAGTGTCGTAAACGTCGGATATCCGGTTCTTGTGTCTTGATTCGCTTGACGCTGCTG,12.6
15,TGTCGGGTAAGGGAATGTAGATCACGTGAATCAAAAGTCTTGATTCGCTTGACGCTGCTG,8.84
16,TACTGACTTATCTATGCGAATGCACATGAATAGACCGTCTTGATTCGCTTGACGCTGCTG,8.81
17,CACGATTTTTACAGTAATGTAGCACGCGTAACTCCTGTCTTGATTCGCTTGACGCTGCTG,8.88
18,CACAATTTTTACAGAAATGTAGCACGCGTAACTCCTGTCTTGATTCGCTTGACGCTGCTG,8.81
19,CGGAAGTGTCGTAAACGTCGGATATCCGGTTGTTCTGTCTTGATTCGCTTGACGCTGCTG,12.5
20,TAAAGGGAAGACGGTTGGGGTAGTTCCGGGTATTAAGTCTTGATTCGCTTGACGCTGCTG,11.4

row,Sequence,binding signal (log fluorescence intensity)
1,TCCGGCTACCAGCTCCACTCACTTCAGGCCTTGTAGGTCTTGATTCGCTTGACGCTGCTG,8.9
2,TAAATGGAAGACGGTTGTGGTAGTTCCGGGTATTAAGTCTTGATTCGCTTGACGCTGCTG,11.2
3,GGAAAAAGGCCCAGGGTAACACCGCAAGTGGGCTTAGTCTTGATTCGCTTGACGCTGCTG,8.91
4,GCTGCTGCGGTGCATACCCCACCGGATGCGACCCCGGTCTTGATTCGCTTGACGCTGCTG,9.88
5,CACAATTTTTACAGTAATGTATCACGCGTAACTCCTGTCTTGATTCGCTTGACGCTGCTG,8.71
6,TACTGACTTATAGATGCGAATGCACATGAATAGACCGTCTTGATTCGCTTGACGCTGCTG,8.81
7,CAGGGACTTGACCCAACTCTGCCACGTGGGTCGTTTGTCTTGATTCGCTTGACGCTGCTG,8.86
8,GTGTATAGGATCCCATCCAACACACGTGTTAAGATGGTCTTGATTCGCTTGACGCTGCTG,8.88
9,CGGCATAGGACTTCTTCCCTGAAGCAATTGATAACCGTCTTGATTCGCTTGACGCTGCTG,8.89
10,TGTCGGGTAAGGGAATGTAGATCACGTCAATGAAAAGTCTTGATTCGCTTGACGCTGCTG,8.87
11,CAGCATAGGACTTCTTCCCTGAAGCAATTGGTAACCGTCTTGATTCGCTTGACGCTGCTG,8.8
12,TCCGGCTACCAGCTCCACCCACTTCAGGCCTTGTTGGTCTTGATTCGCTTGACGCTGCTG,8.77
13,GTGAATAGGATCCCATCCAACACACGTGTTAAAATGGTCTTGATTCGCTTGACGCTGCTG,8.94
14,TAAAGGGAAAACGGTTGTGGTAGTTCCGGGTATTAAGTCTTGATTCGCTTGACGCTGCTG,11.2
15,CGTCGGGTAAGGGAATGTAGATCACGTGAATGAAAAGTCTTGATTCGCTTGACGCTGCTG,9
16,GTGTATAGGATCACATCCAACACACGTGTTAAAATGGTCTTGATTCGCTTGACGCTGCTG,8.82
17,GAGTAATTTCTGCCCTTATTCGCACGTGCCATAACAGTCTTGATTCGCTTGACGCTGCTG,8.78
18,GATTAAGTTCTGCCCTTATTCGCACGTGCCATAACAGTCTTGATTCGCTTGACGCTGCTG,8.84
19,CGGAAGTGTCGTAAACGTCGGATACCCGGTTCTTCTGTCTTGATTCGCTTGACGCTGCTG,9.29
20,TAAAGGGAAGACGGTTATGGTAGTTCCGGGTATTAAGTCTTGATTCGCTTGACGCTGCTG,11.2
